The values that follow come from ChEMBL document CHEMBL1157539, “Thousands of chemical starting points for antimalarial lead identification” (Nature, 2010).

Molecules are shown by their SMILES. Over roughly 13,000 compounds, “IFI” has its median near 4; the highest 2% begin near 17. The list shows a part of the results.

The nature of this experiment: GSK_TCMDC: Inhibition Frequency Index (IFI). The number of non-kinase HTS assays where a compound showed > 50 % inhibition, expressed as a percentage of the number of such assays in which the compound was tested (-0 is zero). In kind it is functional.
The molecule `COc1cccc(Nc2c(C(N)=O)cnc3ccc(-c4ccccc4)cc23)c1` yielded an IFI of 5.04%.

The molecule `Cc1cc2nc(-c3ccc(/C=C/C(=O)NCCc4ccccc4)cc3)[nH]c2cc1C` came in with an IFI of 0.75%.

`CC(C)(C)c1ccc(C(=O)Nc2ccc3nc4c(c(N)c3c2)CCCC4)cc1` displayed an IFI of 4.9%.

`COc1ccc(CCCN2C(=O)C(c3ccccc3)(c3ccccc3)N=C2N)cc1` showed an IFI of 8.65%.

In turn, `CC1CN(Cc2ccc(-c3ccc(-c4nc5cc(F)ccc5[nH]4)s3)cc2)CC(C)O1` (stereo unspecified) yielded an IFI of 8.33%.

For `COc1ccc(-c2cc3ncn(CC(=O)N4CCN(c5cccc(OC)c5)CC4)c(=O)c3s2)cc1`, the IFI was found to be 5.63%.

With `O=C(/C=C/c1cccc(Cl)c1)N1CCC(C(O)CN2CCC3(CC2)CN(C(=O)/C=C/c2cccc(Cl)c2)c2ccccc23)CC1` (stereo unspecified), the IFI was determined as 3.7%.

`Cc1nc(-c2ccc(-c3ccc(C(=O)Nc4ccc(I)c(OCCN5CCCC5)c4)cc3)c(C)c2)no1` gave an IFI of 6.77%.

For the molecule `COc1ccc(-c2ccc(NC(=O)c3cccc(Cl)c3)c(F)c2)cc1CN1CCCN(C)CC1`, the IFI turned out to be 8.05%.

`Oc1cc(-c2nc(-c3ccccc3)[nH]c2-c2ccncc2)ccc1Cl` gave an IFI of 8.39%.

Molecule `CCOC(=O)NC1=NC(C)(C)N(OCCCOc2cc(Cl)c(Cl)cc2Cl)C(NC(=O)OCC)=N1` returned an IFI of 3.74%.

For `COCCN1CCC(CN(C)CC(C)(C)c2nc(-c3ccc(Cl)c(O)c3)c(-c3ccncc3)[nH]2)CC1`, the IFI was determined as 0%.

Molecule `O=C1O[C@H](c2ccccc2)[C@H](c2ccccc2)N(C(=O)OCc2ccccc2)[C@H]1Cc1ccccc1C1CCCC1` returned an IFI of 1.42%.

On to `Cc1cccc(Nc2nc(N[C@@H]3CCCNC3)nc3cc[nH]c(=O)c23)c1`, for which the IFI stood at 16.7%.

In turn, `CCOc1cc2ncnc(Nc3ccc(OCc4ccccc4Br)c(OC)c3)c2cc1OCC` yielded an IFI of 1.48%.

`COc1ccc(Nc2nc(NC3CCCC3)cc(-c3ccc(OC)cc3)n2)cc1` showed an IFI of 4.69%.

Molecule `CC1(C)CCC(C)(C)c2c1ccc(C1CCN(CCCCNC(=O)c3ccc(-c4ccc(C#N)cc4)cc3)CC1)c2O` registered an IFI of 9.92%.

For the molecule `O=C(Nc1ccc(F)cc1)c1cnc(N2CCN(c3ccncc3)CC2)c(Cl)c1`, the IFI is 8.51%.

With `Cc1ccc(CNC(=O)[C@H](Cc2ccccc2)Nc2cc(C)nc(NCCc3ccc(F)cc3)n2)cc1`, the IFI was 11.4%.

As to `Cc1ccc(C)c(S(=O)(=O)Nc2ccc(Br)cc2C(=O)Nc2cccc(C(F)(F)F)c2)c1`, the IFI was found to be 21.1%.

Consider `N=C(N)Nc1cccc(NC(=O)Nc2cccc(NC(=N)N)c2)c1`, for which the IFI is 1.48%.

For the molecule `C#Cc1cccc(NC(=O)[C@H](CC2CCCCC2)Nc2ccc(C#N)c3ccccc23)c1`, the IFI turned out to be 3.77%.

`Cc1ccccc1C1CCN(c2ccc(C(=O)Nc3ccccc3)cn2)CC1` showed an IFI of 10.2%.

Molecule `CN1CCC(NCc2ccc(-c3cccc(S(=O)(=O)NCCc4ccccn4)c3)cc2)CC1` had an IFI of 1.96%.

Molecule `Cc1cc(CN2CCC(N3CC(c4ccccc4)(c4ccccc4)OCC3=O)C2)ccc1O` (stereo unspecified) registered an IFI of 7.5%.

Molecule `CCN1CCC(N(Cc2ccc(-c3ccc(C(F)(F)F)cc3)cc2)C(=O)Cn2c(CCc3cccc(F)c3F)cc(=O)c3ccccc32)C1` (stereo unspecified) displayed an IFI of 4.29%.

The molecule `O=C(NCCNc1noc(-c2sccc2Br)n1)c1ccc(Cl)cc1` registered an IFI of 3.03%.

For `CC(CNC(=O)c1cc2c(Cl)cc(Cl)cc2[nH]1)CNc1cc(=O)c2ccccc2[nH]1` (stereo unspecified), the IFI came out at 9.02%.

As to `COc1ccc(OC)c(NC(=O)c2c(-c3c(F)cccc3Cl)noc2C)c1`, the IFI was determined as 1.45%.

As to `CCCC(C(=O)OCCNC)(c1ccccc1)c1ccccc1`, the IFI stood at 3.6%.

Regarding `O=C(Nc1ccc(OC2CCN(Cc3ccco3)C2)c(Cl)c1)c1ccc2ncccc2c1` (stereo unspecified), the IFI stood at 3.33%.

In the case of `C=CCOC(=O)N1CCC(CNCc2ccc(-c3ccc(-c4nc5ccccc5[nH]4)s3)cc2)C1` (stereo unspecified), the IFI stood at 11%.

`O=C(Nc1cccc(-c2nn3ccccc3c2-c2ccnc(Nc3ccc(C(=O)N4CCOCC4)cc3)n2)c1)c1c(F)cccc1F` yielded an IFI of 8.59%.

`CN(C)CCNC(=O)NC1CN(c2ncnc3cc(-c4ccccc4)sc23)C1` yielded an IFI of 2%.

Molecule `c1cc(-c2ccc(CNCCCn3ccnc3)cc2)cc(-c2nc3ccccc3[nH]2)c1` registered an IFI of 7.62%.

Regarding `CCCC[C@@H](C(=O)NCc1ccccc1C(F)(F)F)N1C(=O)CCC1C(=O)Nc1ccc([N+](=O)[O-])cc1` (stereo partly specified), the IFI is 0.74%.

For `COc1ccc(-c2nnc(Sc3ccc(C#N)c([N+](=O)[O-])c3)n2CCC(C)C)cc1`, the IFI worked out at 5%.

In turn, `O=C(O)C[C@H](NC(=O)[C@@H]1CCCN1C(=O)c1cccc(-c2ccc(Cl)c(Cl)c2)c1)C(=O)O` had an IFI of 0.74%.

`C=CCOC(=O)N1CCC(CNCc2ccc(-c3cccc(-c4nc5cc(F)ccc5[nH]4)c3)cc2)C1` (stereo unspecified) had an IFI of 2.91%.

`Oc1cccc(Nc2nc(NCC3CCCO3)c3ccccc3n2)c1` (stereo unspecified) came in with an IFI of 2.19%.

Take `O=c1cc(NCCCNCc2csc(Br)c2Sc2ccc(Cl)cc2)[nH]c2ccccc12`: the IFI came to 6.38%.

In the case of `CC1(C)NC(=N)N=C(NOCC=Cc2ccccc2)N1`, the IFI is -0%.

Molecule `COc1ccc(NC(=O)/C=C/c2ccc(Oc3ccccc3Cl)c([N+](=O)[O-])c2)cc1OCCN(C(C)C)C(C)C` had an IFI of 7.63%.

Take `OC(CNCc1ccccc1OCc1ccccc1)c1cc(Br)cs1` (stereo unspecified): the IFI came out at 6.06%.

As for `NOCCCCOc1cc(Cl)c(Cl)cc1Cl`, the IFI was -0%.

`NC1CCN(Cc2cccc(-c3ccc(-c4nc5cc(F)ccc5[nH]4)cc3)c2)C1` (stereo unspecified) gave an IFI of 4.29%.

The molecule `O=c1cc(NCCCNCc2cccc(OC(F)(F)F)c2)[nH]c2ccccc12` returned an IFI of 2.16%.

`COc1ccccc1-c1cccc(CNC2CCN(CC3Cn4c(=O)ccc5ccc(F)c3c54)CC2)c1` (stereo unspecified) registered an IFI of 7.27%.

`Clc1ccc(Nc2nc(NCc3ccccc3)nc(N/N=C/c3ccccn3)n2)cc1` showed an IFI of 10.6%.

For `COc1ccc(Cl)cc1N1CCN(CCCNC(=O)c2ccc(-c3nc4ccc(C(F)(F)F)cc4[nH]3)c(C)c2)CC1`, the IFI turned out to be 1.46%.

With `CC(CCCCOCCc1ccccc1)NCC(O)c1cc(Cl)c(N)c(Cl)c1` (stereo unspecified), the IFI turned out to be 0.74%.

The molecule `COc1cc(OC)cc(C(=O)Nc2ccc(-c3nc4ccccc4[nH]3)cc2)c1` had an IFI of 1.42%.

For the molecule `Cc1cc(C2CCN(CCCCNC(=O)c3ccc(NC(=O)c4ccc(Cl)cc4)cc3)CC2)c(C)cc1OCc1ccncc1`, the IFI turned out to be 3.03%.

`N#Cc1ccc(CN2CCC(Oc3ccc(NC(=O)c4ccco4)cc3Cl)CC2)cc1` gave an IFI of 1.56%.

For the molecule `O=C(Nc1cccc(-c2ccc(-c3nc4cc(F)ccc4[nH]3)cc2)c1)Nc1ccc(F)c(F)c1F`, the IFI was found to be 1.98%.

For `Cc1cc(NCCCCCCNc2cc(C)nc3c(C)cccc23)c2cccc(C)c2n1`, the IFI came to 3.65%.
